# From article PMC7819943, “Rice protein-binding microarrays: a tool to detect cis-acting elements near promoter regions in rice”
# The list shows a part of the results.
# Biological target: T1, OsWOX13 (Oryza sativa, UniProt Q5QMM3 1-267)
# T1 sequence: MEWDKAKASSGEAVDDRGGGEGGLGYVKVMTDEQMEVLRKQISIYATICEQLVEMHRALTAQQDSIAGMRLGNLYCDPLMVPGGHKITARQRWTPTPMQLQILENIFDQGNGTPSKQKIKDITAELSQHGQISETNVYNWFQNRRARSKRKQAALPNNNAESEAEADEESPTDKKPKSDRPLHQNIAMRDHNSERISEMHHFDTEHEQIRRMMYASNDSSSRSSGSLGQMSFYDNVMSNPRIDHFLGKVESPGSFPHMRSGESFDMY
# Assay: protein-binding microarray (RPBM); PBS, 2% BSA, 51.3 ng/ul salmon testes DNA, 50 uM zinc acetate, 200 nM TF, 25 C, 1 h; high values mean tight binding
# Settings: protein: recombinant; tags: N-terminal polyhistidine and DsRed monomer fusion (pET32a); label: CyDye5-dUTP incorporated in the synthesized complementary strand; 3' TTTTT single-stranded linker to array surface; dsDNA, one strand shown
# How it was run: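 Using Ni–NTA, transcription factors fused N-terminally to polyhistidine and DsRed were purified after expression in E. coli BL21-CodonPlus. These were incubated at 200 nM with a blocked, double-stranded custom Agilent array for 1 h at 25 °C in a buffer containing 50 µM zinc acetate, and the array was washed. The binding signal is per-feature fluorescence intensity (arbitrary units) on an Axon 4000B scanner.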
row,Sequence,binding signal
1,TTTAATTTCAGATTTATTTCATTTTCCGTAAGACCAACTTCGGAGTCACCTAGTGCAG,4160 fluorescence intensity (a.u.)
2,CTGCATTTTAGAATGATTTATTAAATCTCAAAAGTTTCAACGGAGTCACCTAGTGCAG,4640 fluorescence intensity (a.u.)
3,GAAATTTTCTTGTTCTGATTTGTGATTCGGACTTCTGCAGCGGAGTCACCTAGTGCAG,10200 fluorescence intensity (a.u.)
4,AACTAATTTAATTAAGCTCAAACGCATGCATGCTACTGTTCGGAGTCACCTAGTGCAG,34100 fluorescence intensity (a.u.)
5,TAAAATAAATTTATTTAAAAGTTTATATATCTAATGTTTACGGAGTCACCTAGTGCAG,16500 fluorescence intensity (a.u.)
6,TTTTGTGATTATCCATAAAATACTTATAGATACTAAAGTTCGGAGTCACCTAGTGCAG,10100 fluorescence intensity (a.u.)
7,AATCGAGTTGATTTGATAATCTTTCACCAAGATAAGTTTCCGGAGTCACCTAGTGCAG,16500 fluorescence intensity (a.u.)
8,TGAGCACCAAGAATCAATCAATCGAGCAGAAATTTGATCTCGGAGTCACCTAGTGCAG,7100 fluorescence intensity (a.u.)
9,TTAAATTGAACTGACCAAAATTATACAGTTGGATACTACTCGGAGTCACCTAGTGCAG,23700 fluorescence intensity (a.u.)
10,GGTTGCTGATTGTATCCTTTACTACTAGATCTTGACTGAGCGGAGTCACCTAGTGCAG,16300 fluorescence intensity (a.u.)
11,ACCAATTTATATGGCAAATGTGATCAATATAGACAGAATCCGGAGTCACCTAGTGCAG,3670 fluorescence intensity (a.u.)
12,TGACATAAAATAAACTGTAATTTATTTGTTTCTCTAGATTCGGAGTCACCTAGTGCAG,5760 fluorescence intensity (a.u.)
13,AGGTTGATTTTCTCATCAATAGTTTCCTATTTATGAATTACGGAGTCACCTAGTGCAG,12400 fluorescence intensity (a.u.)
14,TCTAATTTCTACACTGTCCTTTAGACTATTCAGTATACATCGGAGTCACCTAGTGCAG,3700 fluorescence intensity (a.u.)
15,TAACTCACCATCATCTCAATTAATTCACGTACGACGCATTCGGAGTCACCTAGTGCAG,3460 fluorescence intensity (a.u.)
16,TTCAATTTGAATGGATATTTAATGCCTTAAATTATCCTGCCGGAGTCACCTAGTGCAG,9150 fluorescence intensity (a.u.)
17,GAGCAATTAGGCTTAAAAGATTCGTCTCGCAAATTAGTCGCGGAGTCACCTAGTGCAG,3540 fluorescence intensity (a.u.)
18,AGAGTTGTATATTATGATAATTTGTTTAATGATCAGTCTACGGAGTCACCTAGTGCAG,5020 fluorescence intensity (a.u.)
19,CGGCTGAATTGACTAAATTGGCTAATTTGGGACATCTCAACGGAGTCACCTAGTGCAG,33300 fluorescence intensity (a.u.)
20,CAAATTAGATTGATTTGGTTAGATTGGATGTTTACCTTTACGGAGTCACCTAGTGCAG,50300 fluorescence intensity (a.u.)
21,CACGTGATAGATTTCCTTAACGTACGCAGAAAATATCCGTCGGAGTCACCTAGTGCAG,22900 fluorescence intensity (a.u.)

row,Sequence,binding signal
1,CAAAATTAGCCATATCAAAACTTGCCAAAATTTGGCATTGCGGAGTCACCTAGTGCAG,6390 fluorescence intensity (a.u.)
2,AATGATAATTAAAGGTTACTTATAATTAGTGGGTACAAGTCGGAGTCACCTAGTGCAG,27100 fluorescence intensity (a.u.)
3,TATTCCTGCAATTTAAACTAAATAATTTTCGTGTGGTGTACGGAGTCACCTAGTGCAG,3320 fluorescence intensity (a.u.)
4,ATCATAGTACTGATGCATGATTGAAACAGCTAAGAACTTGCGGAGTCACCTAGTGCAG,12700 fluorescence intensity (a.u.)
5,CCATATAATTATGCTTGTTATTATGTGACAAAGAGCGGGTCGGAGTCACCTAGTGCAG,25400 fluorescence intensity (a.u.)
6,GGAGAGCAATCAAGCGAAATTGACACGTGTCACGGCAGTGCGGAGTCACCTAGTGCAG,30300 fluorescence intensity (a.u.)
7,TATAAATAAATTAACTTTTCAATTTTACAATAATTAAAACCGGAGTCACCTAGTGCAG,13900 fluorescence intensity (a.u.)
8,CCCTGATTTCCACACGCACGCTTCCTAAACTGTTAAACGGCGGAGTCACCTAGTGCAG,18100 fluorescence intensity (a.u.)
9,TCTTTGATTACAATGGAGTCCACCAAGGTCTCGGCGATGCCGGAGTCACCTAGTGCAG,25000 fluorescence intensity (a.u.)
10,CCTACGCACCAATCACAGCACATAATGTACAACATACCTACGGAGTCACCTAGTGCAG,17900 fluorescence intensity (a.u.)
11,TTGACAGAACATGCATCAAGTCACCACCAACAACATTTGCCGGAGTCACCTAGTGCAG,3660 fluorescence intensity (a.u.)
12,CAGATTAAAGATTTGAACTGAACTGAACTGAACTGACACTCGGAGTCACCTAGTGCAG,3790 fluorescence intensity (a.u.)
13,GTAGGCTGATTTATAATAATTTATGTGTATTGCGCTATAGCGGAGTCACCTAGTGCAG,39400 fluorescence intensity (a.u.)
14,ATGAATGAATTACATATCATTATGTATCGTCGCACCCTGTCGGAGTCACCTAGTGCAG,6700 fluorescence intensity (a.u.)
15,CGTGATGACTGCTACGAGCATGAATTAATGCTTCTAGTTACGGAGTCACCTAGTGCAG,8600 fluorescence intensity (a.u.)
16,TCAATGAACTATTAGATTGGCTATAAATAAATTGGAGCTACGGAGTCACCTAGTGCAG,21300 fluorescence intensity (a.u.)
17,GTTAATGAATCTAGACATATACATCTATCTAGATTCATTACGGAGTCACCTAGTGCAG,5660 fluorescence intensity (a.u.)
18,TTACACTACTTAATTTGTTTAATTTAATTAACTCAACGCCCGGAGTCACCTAGTGCAG,19000 fluorescence intensity (a.u.)
19,GGGCCAAATTTTATCGAGAAGATTAGACACGAGTATGGGCCGGAGTCACCTAGTGCAG,3490 fluorescence intensity (a.u.)
20,GTATCAATTAGTATCTGAAGAGGTGGGCATCGTATTTCCTCGGAGTCACCTAGTGCAG,13000 fluorescence intensity (a.u.)
21,TTCGAGTAATTAATTAAGCTCCGACCACGAAGCTTCTGGCCGGAGTCACCTAGTGCAG,26000 fluorescence intensity (a.u.)

row,Sequence,binding signal
1,GTTTTCTAATGATGGCACTAATTTCTTTCTTCTACTAACTCGGAGTCACCTAGTGCAG,5420 fluorescence intensity (a.u.)
2,ATTAATAGGACAGATCACAAAATTGTTCATTGGAAAACTTCGGAGTCACCTAGTGCAG,6160 fluorescence intensity (a.u.)
3,TGTAACTGGTAACATGCATGTACACATCCAGGCTTGCATGCGGAGTCACCTAGTGCAG,6030 fluorescence intensity (a.u.)
4,CTAGTAGTTTATTTATTGACAAGATTGCCACGTAACCGAACGGAGTCACCTAGTGCAG,12200 fluorescence intensity (a.u.)
5,TAGATTGATCGGACTAACCACCCCATTTTACACCATTTGCCGGAGTCACCTAGTGCAG,20900 fluorescence intensity (a.u.)
6,GTGTGATTACAAAGCCACACGATATTTGTGAGTCGCCGCGCGGAGTCACCTAGTGCAG,9670 fluorescence intensity (a.u.)
7,AATGTGATAACAGAGAAATTACTTGATGAGGCAAGTTAATCGGAGTCACCTAGTGCAG,9130 fluorescence intensity (a.u.)
8,GATTCATTTAACAATTATATGAATGTGGGAAATGCTAGAACGGAGTCACCTAGTGCAG,3910 fluorescence intensity (a.u.)
9,TCGATTGACTGCATCTTTTCCTGAAAGTGAACATGCAGTGCGGAGTCACCTAGTGCAG,32500 fluorescence intensity (a.u.)
10,TTATGTAATTAGCTTACTGTAGCCATCAGGTTTTGTCACTCGGAGTCACCTAGTGCAG,13300 fluorescence intensity (a.u.)
11,TTTTATTTCTTGTTGATTACAGGATCAAATCAACTGGCACCGGAGTCACCTAGTGCAG,5660 fluorescence intensity (a.u.)
12,GACCTAATTATCGATCGATCGATCGAGCTGACCCGGAAATCGGAGTCACCTAGTGCAG,10500 fluorescence intensity (a.u.)
13,ACTAATTAGTTGGCGGGTAACCATTCCAAATCAACACATTCGGAGTCACCTAGTGCAG,43000 fluorescence intensity (a.u.)
14,ACTGATAACATATATAACAGAGGAATACATTTTGCTCAGTCGGAGTCACCTAGTGCAG,6660 fluorescence intensity (a.u.)
15,TTATAATTAAGTAGAGTAGGAGGAAGGATTAAGGAAGGAGCGGAGTCACCTAGTGCAG,3370 fluorescence intensity (a.u.)
16,GGACATCATGATTAGCATGTTATGAGGGATCACTATACTTCGGAGTCACCTAGTGCAG,24400 fluorescence intensity (a.u.)
17,CTTGATGGGATGGGATCTCACTCTGCTTTAATCGCACTCGCGGAGTCACCTAGTGCAG,18900 fluorescence intensity (a.u.)
18,CAATTGAAATTACTAACTGAAGTTCATTCCAATCCAATTGCGGAGTCACCTAGTGCAG,4940 fluorescence intensity (a.u.)
19,GCTGACTTTGCATTTATTTAGATTTAAAATTGCAAGCTTGCGGAGTCACCTAGTGCAG,6250 fluorescence intensity (a.u.)
20,ATAATTATCATTTCATTCGTATTATCGATGCATGTGAGGACGGAGTCACCTAGTGCAG,9310 fluorescence intensity (a.u.)
21,TCCCAATCACCAACTGCCCAGCTCCATTCCTCACCCAACACGGAGTCACCTAGTGCAG,10600 fluorescence intensity (a.u.)

row,Sequence,binding signal
1,AGCATGATTTCCAGTTAGAGTTACCAAAATTTGGCTTAAACGGAGTCACCTAGTGCAG,12800 fluorescence intensity (a.u.)
2,ACTTGATGGAATAATTTAAAAGAAAGTGTCAGCATTTTAACGGAGTCACCTAGTGCAG,9540 fluorescence intensity (a.u.)
3,CTACCAAATTGATGGTCCCAAATGTTCCTCCGTTTCCATGCGGAGTCACCTAGTGCAG,25700 fluorescence intensity (a.u.)
4,CAAGTCACCCAATCATCATCATCAAACGCCAACCAACAGCCGGAGTCACCTAGTGCAG,5950 fluorescence intensity (a.u.)
5,CTACACGCATAATTAATTGAGCTTTAACTATTACTCCCTTCGGAGTCACCTAGTGCAG,12100 fluorescence intensity (a.u.)
6,AATGACAGCTGTACTGTGATCCTTATTTTGACTATTCTTGCGGAGTCACCTAGTGCAG,4870 fluorescence intensity (a.u.)
7,ATTCAATTTATGTCTCTCGAAAATAGATATGAACATACTTCGGAGTCACCTAGTGCAG,3690 fluorescence intensity (a.u.)
8,TTTGATGTGACATGATGTAAAGTTTTGGGATGGGATCTAACGGAGTCACCTAGTGCAG,18000 fluorescence intensity (a.u.)
9,CCTGTCATTATCTCTTGTGTTAATTTTAATATTTTGGATGCGGAGTCACCTAGTGCAG,4560 fluorescence intensity (a.u.)
10,TAAATTAGCAGGTAATTCTAGCTTACTTATAAGCGGATTCCGGAGTCACCTAGTGCAG,5330 fluorescence intensity (a.u.)
11,ATAACAACGAATTGAATGACGAGTAATCGAACGTGGCATTCGGAGTCACCTAGTGCAG,8150 fluorescence intensity (a.u.)
12,GGAAGGAATGTTTGTGTTGATTGCCACGGAATTCTAGCAACGGAGTCACCTAGTGCAG,4200 fluorescence intensity (a.u.)
13,CTGATGATTACCGATCACGTTCTCTGATGGATAGGTGACACGGAGTCACCTAGTGCAG,24600 fluorescence intensity (a.u.)
14,AAATAATTAACCCTGTAAAATGCCATCGCTCACGGTTTACCGGAGTCACCTAGTGCAG,7620 fluorescence intensity (a.u.)
15,CCTAATTAATTACTCCGTCTGTTCTTGAATATGACAACTTCGGAGTCACCTAGTGCAG,47200 fluorescence intensity (a.u.)
16,TGCTGATTTCTGTTGGGCCTAAAGGTTGAAATGCTGAACCCGGAGTCACCTAGTGCAG,7790 fluorescence intensity (a.u.)
17,ACGCACTCAAGTTAGGATTTGATTGAAGAGTCAATCAATCCGGAGTCACCTAGTGCAG,36800 fluorescence intensity (a.u.)
18,AATTAGGAGTCCAATTATCTCATATTAACATGCGAGTTTTCGGAGTCACCTAGTGCAG,3280 fluorescence intensity (a.u.)
19,AATAAGTTGTAATAATTAAAATTTAGTTAATCACGCGCGCCGGAGTCACCTAGTGCAG,9080 fluorescence intensity (a.u.)
20,GATAATTTGTCCTGTCACTTAGGGCTCCCACATAGTAACACGGAGTCACCTAGTGCAG,25200 fluorescence intensity (a.u.)
21,AGGACTGCTAATTGCTATACTTGGTACCACTTTCTCAATTCGGAGTCACCTAGTGCAG,10500 fluorescence intensity (a.u.)
